The values below come from the RNAGym collection of RNA variant scans (doi:10.7554/elife.90254).

Read counts are not given, so values of variants with three or more changes are uncertain.

First the molecules themselves.
B1: LINE1-mini (parent)
chain: GGCAGAGCUCAACACAGCGUGGCAAAGUGGCUGUGGCUAGACUGCC

The variants in the data set derive from B1. Description: self-cleavage, relative activity (ratio to wild type); higher = more cleavage; in vitro, sequencing; the parent is a self-cleaving ribozyme.
In the case of GGCUUAGCUCAACACGGCGUGGCAAAGUGGCUGUGGCUAGACUGCC [A4U G5U A16G], the self-cleavage was found to be 0.03.
GGCUGAGCUCAACACAGGGUGGCAAAUUGGCUGUGGCUAGACUGCC [A4U C18G G27U]: the self-cleavage is 0.52.
Next, GGCUCAGCUCGACAGAGCGAGGCAAAGUGGCUGUGGCAAGACUGCC [A4U G5C A11G C15G U20A U38A]: 0.01.
Then GGCUGAGCUCAACACAGCGUGGAAAAGUGGCUGUGGUUAGACUGCC [A4U C23A C37U], with 0.04; and GGCUGAGCUCAACACAACGUGGAAAAGUGGCUGCGGCUAGACUGCC [A4U G17A C23A U34C], with 0.02.
Then GGCUGAGCUCAACACAUCAUCGCAAAGGGGCUGUGGCUAGACUGCC [A4U G17U G19A G21C U28G], with 0.03; and GGCUGAGCUCAACACAGCGUGGCAAAGUGGCUGUGGUUAGUCUGCA [A4U C37U A41U C46A], with 0.02.
For GGCUGAGCUCAACACAGUGUGGCACAGUGGCUGUGGCUAGAUUGCU [A4U C18U A25C C42U C46U], the self-cleavage amounted to 0.03.
Then GGCUAAGCUCAACACAGCGUGGCGAAGUGGCUGUGGCUAGACUUCC [A4U G5A A24G G44U], with 0.12; and GGCUCUGCUCAAUACAGCGUGGCAAAGUGGCUGUGGCUAGACUGCC [A4U G5C A6U C13U], with 0.12; and GGCUGAGCUCAACACAGCGUGGAAAAGUGGCUGUGGCUAGUCUGCC [A4U C23A A41U], with 0.24.
As to GGCUGAGCUCAACACAGCGUGGAAAAGUAGCUGUGGCUAGACUGCC [A4U C23A G29A], the self-cleavage was found to be 0.61.
Then GGCUGAGCUCAACACAACGUGGCAAAGUGGCUGUGGCUGGACUGCC [A4U G17A A39G], with 0.04; and GGCUUAGCGCAACACAGCGUGGCAAAGUGGCUGUGGCGAGACUGCC [A4U G5U U9G U38G], with 0.01.
For the variant GGCUGAGCUCAACACAACGUGGCAACGUGCCUGUGGCUAUACUGCC [A4U G17A A26C G30C G40U], the self-cleavage is 0.02.
Next, GGCUGACCUCUACACCGCUUGGCAAAGUCGCUAUGGCUAGACUGCC [A4U G7C A11U A16C G19U G29C G33A]: 0.01.
As for GGCUGAACUCAACACAGCGUGGCAAAGUGGCUGUGGCUAGACUACC [A4U G7A G44A], the self-cleavage came to 0.28.
As to GGCUGAUCUCAACACAGCGUGGCAAAGAGGCAGUGGCUAGACUGCC [A4U G7U U28A U32A], the self-cleavage came out at 0.09.
For the variant GGCUCCGCUCAACACAGCGUGGCAAAGUGGCUGUGGCUAGACUGCC [A4U G5C A6C], the self-cleavage was 0.1.
GGCUGAGCUCAACACAGUGUGGCAAAGUGGCUGUUGCUAGAGUGCC [A4U C18U G35U C42G]: the self-cleavage turned out to be 0.03.
Take GGCUGAGCUCAACACAGCGUGGCAAAGUGGAUGUGGCUAGACUGGC [A4U C31A C45G]: the self-cleavage was found to be 0.03.
As to GGCUGAGCUCAACACAGCGUGGCAAAGUGGCUGUGGUUUGACUGCC [A4U C37U A39U], the self-cleavage amounted to 0.04.
Then GGCUGAACUCAACACAGCGUGGCAAAGUGUCUUUGGCUAGACUGCC [A4U G7A G30U G33U], with 0.45; and GGCUGAGCUCAACACAGACUUGCAAAGUGGCUGUGGCUAGACUGCC [A4U C18A G19C G21U], with 0.36.
Consider GGCUGACCUCAAUACAGCGUGGCAAAGUGGCUGUGGCUAGACUGCC [A4U G7C C13U], for which the self-cleavage was found to be 0.11.
Next, GGCUGAGCUCAACACACCGUGGCAAAGUGGCUGUGGCUAGAAUGCC [A4U G17C C42A]: 0.01; GGCUUAGCUCAACACAGGGUGGCAAAGUGGCUGUGGCUAGACUCCC [A4U G5U C18G G44C]: 0.04; GGCUUAGCUCAACACACCGUGGCAAAGUGGCUGUGGCUAGACUGCC [A4U G5U G17C]: 0.06.
Then GGCUGAUCUCAACACAGCGUGGCAAAGUGGCUGUGGCUAGAUUGCC [A4U G7U C42U], with 0.03.
GGCUCAGCUCAACACAGCGUGGAAAAGUGGCUGUGGCUAGACUGCA [A4U G5C C23A C46A]: the self-cleavage worked out at 0.08.
Then GGCUGAGCUCAACACACCGAGGCAAAGAGGCUGUGGCUAGACUGCC [A4U G17C U20A U28A], with 0.07.
On to GGCUGAACUCAACAUAGCGUGGCAAAAUUGCUGUGGCUAGACUGCC [A4U G7A C15U G27A G29U], for which the self-cleavage was determined as 1.4.
Then GGCUGAUCUCAACACUGCGUGGCGAAGUUGCUGUGGCUAGACUGCC [A4U G7U A16U A24G G29U], with 0.02.
For the variant GGCUCAGCUCAAGACAGCGCGGUAAAGUGGCUGUGGCUAGACUGCC [A4U G5C C13G U20C C23U], the self-cleavage amounted to 0.02.
Next, GGCUGAGCUCAACACAGCGUGGGAAAAUGGCUGUGGCUAGACUCCC [A4U C23G G27A G44C]: 0.08.
Next, GGCUGAGCUCAACACAGCGUGGGUAAGUGGCUUUGACUAGACUGCC [A4U C23G A24U G33U G36A]: 0.05; GGCUUAGCUCAACACAGCGUGGCAAAGUGGAUGUGGCUAGACUGCC [A4U G5U C31A]: 0.04; GGCUAAGCACAACACAGCGUGACAAAGUGACUGUGGAUAGACUGCC [A4U G5A U9A G22A G30A C37A]: 0.03.
GGCUGAGCUCAACACAGAGUGGCAAAGUGGCUGUGGCCAGACUGCC [A4U C18A U38C]: the self-cleavage was found to be 0.09.
Next, GGCUGAGCUCAACACAACGUGGCAAAGUGGCUGUCGCGAGACUGCC [A4U G17A G35C U38G]: 0.05; GGCUGAGCUCAACACAGAGUGCCAAAGUGGCUGUGCCUAGACUGCC [A4U C18A G22C G36C]: 0.08; GGCUGAUCUCAACACUGCGUGGCAAAGUGGUUGUGGCUAGACUGCC [A4U G7U A16U C31U]: 0.12.
Next, GGCUGAACUCAACACAGCGUGGCAAAGUGGAUGUGGCUAGACUGCC [A4U G7A C31A]: 0.16.
Next, GGCUAAGCUCAACACAGCGUUGCAAAGUGGCUGUGGCUAGACUGCG [A4U G5A G21U C46G]: 0.15; GGCUGAGCUCAACACAACGUGGCAAAGUGGCUGUGGAUAGACUGCC [A4U G17A C37A]: 0.03.
Take GGCUUAGCUCAACACAGCGUGGCCAAGUGGCUGUGGCUAGACUGCC [A4U G5U A24C]: the self-cleavage was determined as 0.03.
In the case of GGCUUAGCUCAACACAGCGUGGCAAAGUGACUGUGCCUAGACUGCC [A4U G5U G30A G36C], the self-cleavage was 0.56.
As to GGCUGAGCUCAACACAGAGUGGCAAAGUGGCUGUGGCUAGAUUGCC [A4U C18A C42U], the self-cleavage stood at 0.04.
Regarding GGCUGAACUCAACACAGCGUGUCAAAGUGGCUGUGGCAAGACUGCC [A4U G7A G22U U38A], the self-cleavage amounted to 0.04.
Regarding GGCUCAGCUUUACACAGCGUGGCAAAGUCGCUGUGGCUAGACUGCC [A4U G5C C10U A11U G29C], the self-cleavage was found to be 0.02.
With GGCUGAACUCAACACAGCGUGGCAAAGUGGCUGUGACUAGACUGCC [A4U G7A G36A], the self-cleavage worked out at 0.32.
Then GGCUGAGCUCAACACACCGUGGGAAAGUGGCUGUCCUGAGACUGCC [A4U G17C C23G G35C G36C C37U U38G], with 0.02.
Next, GGCUGAGCUCAACACAGCGUGGUAAAGUGGCUGUGUCGAGACUGCC [A4U C23U G36U U38G]: 0.02; GGCUCAUCUCAACACAGCGUGGCAAAGUGGCUGUGGCUAGACUGCC [A4U G5C G7U]: 0.22.
Next, GGCUAAGCUCAACACAGCGAGGCAAAGUGGCUGUGGUUAGACUGAC [A4U G5A U20A C37U C45A]: 0.02; GGCUAAGCUCAACACAGCGUGGCAAAGUGGCUGUGCCUAGACUGCC [A4U G5A G36C]: 0.2.
